Test results reported in PubChem BioAssay AID1345083 (National Center for Advancing Translational Sciences (NCATS), 2018).
Screen size: about 94,000 compounds; about 6,200 (6.6%) were called active. This list was built around the results that the source calls inconclusive (neither active nor inactive); the mix of calls is not that of the screen. Calls come from the whole dose curve; as a rule, active = well fitted inhibition curve with a large enough effect; inconclusive = small, poorly fitted or top-dose-only effect; inactive = flat fitted curve, though single readings scatter. Potencies beside an inconclusive call are fits to weak or partial responses and may not hold up.

assay: Cytotoxic Profiling in HEK 293 Cell Line of Diverse Libraries Using Quantitative High-Throughput Screening; settings: HEK 293 viability, ATP luminescence (CellTiter-Glo), 48-72 h; activity change, negative = cytotoxicity: at 115 µM (top of the series) unless noted; series mostly up to 115 µM; note: nearly all actives have a fitted effect of over 60% in size
Method in brief: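 HEK 293 cells seeded at 250 cells/well were exposed to compound for 48 or 72 hr at 37 degree Celsius. Viability taken as ATP content by CellTiter-Glo luminescence.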
% is set by controls: 0 for no effect and ±100 for the full control effect; potency is the fitted concentration of half-maximal effect; tags give direction and shape of the fitted curve.

| Structure (SMILES) | activity change, negative = cytotoxicity | Potency | outcome |
| --- | --- | --- | --- |
| O=C(Nc1cc(C2CC2)nn1-c1ccccc1)c1ccc2ccccc2n1 | inactive: -29.3% [at 172 µM] | – | – |
| CCOc1ccc(C(=O)N2CCCN(c3cc(-c4ccc(F)cc4)[nH]n3)CC2)cc1 | – | active: 31.6 µM | – |
| COc1ccccc1NC(=O)Cn1c(-c2ccc(F)cc2)nc(C)c(CCO)c1=O | – | inconclusive: 79.4 µM [inhibitor, partial curve, poor fit] | – |
| COc1ccc(C(=O)N2CCC3(CC2)NC(=O)N(c2cccc(F)c2)N3)c(OC)c1 | – | inconclusive: 20 µM [inhibitor, full curve] | – |
| O=C(NC[C@H]1COCc2nc3cc(C(F)(F)F)ccc3n21)C1CC1 | – | inconclusive: 100 µM [inhibitor, partial curve, poor fit] | – |
| Cc1cc(C)c(CNC(=O)c2nc(-c3cccc(N4CCOCC4)c3)cc3[nH]ccc23)c(=O)[nH]1 | – | inconclusive: 50.1 µM [inhibitor, partial curve, poor fit] | – |
| CNC(=O)C1(C)CN(Cc2ccccc2)Cc2ccc(NCC(C)C)nc21 (centres undefined) | – | inconclusive: 63.1 µM [inhibitor, partial curve, poor fit] | – |
| Cc1ccc(OC2(C(=O)N(C)Cc3n[nH]c4c3CCCC4)CCNCC2)cc1 | – | inconclusive: 56.2 µM [inhibitor, partial curve, poor fit] | – |
| CS(=O)(=O)Nc1ccc(C2(C(=O)NCc3ccc(F)c(Cl)c3)CCCCC2)cc1 | – | inconclusive: 79.4 µM [inhibitor, partial curve, poor fit] | – |
| C#CCN(C)Cc1nc(C2(O)CCN(C(C)=O)CC2)cs1 | inactive: -1.56% [at 172 µM] | – | – |
| COCC(=O)NC[C@@H]1C=C(C)[C@H](Cc2nc3ccccc3[nH]2)C[C@H]1C(C)C | – | inconclusive: 50.1 µM [inhibitor, full curve, poor fit] | – |
| Cc1ccc(C(=O)N2CCc3nc(C4CC4)nc(-c4ccc(O)cc4)c3C2)cc1 | – | inconclusive: 50.1 µM [inhibitor, partial curve, poor fit] | – |
| C[C@@H]1C(=O)O[C@H]2[C@H]1CC[C@@]1(C)Cc3sc(NC(=O)Nc4ccc(Oc5ccccc5)cc4)nc3[C@@H](C)[C@H]21 | – | inconclusive: 39.8 µM [inhibitor, partial curve] | – |
| O=C(O)C1CCc2nnc(C3CCN(C(=O)c4ccc(F)cc4)C3)n21 (centres undefined) | – | inactive | – |
| COc1cc(OC)cc(C(=O)N2CCCN(c3cc(-c4ccc(F)cc4)[nH]n3)CC2)c1 | – | inconclusive: 50.1 µM [inhibitor, partial curve, poor fit] | – |
| CC(C)NC(=O)NCc1nnc2n1C(C(=O)N1CCN(c3ncccn3)CC1)CC2 (centres undefined) | inactive: 4.48% | – | – |
| CO[C@H]1C(=O)N(C(C)C)[C@H]1C1CCN(C(=O)c2c[nH]c3ccccc23)CC1 | – | – | inactive |
| Cn1nccc1CN1CCCC(c2nn(-c3ccc(Cl)cc3)c(=O)[nH]2)C1 (centres undefined) | – | inconclusive: 56.2 µM [inhibitor, partial curve, poor fit] | – |
| CC(C)CC(=O)NC1CCCc2c1[nH]c1ccc(Cl)cc21 (centres undefined) | – | inconclusive: 7.94 µM [inhibitor, partial curve, poor fit] | – |
| Cc1ccccc1C(=O)NC1CCN(Cc2ccc(-c3ccsc3)cc2)C1 (centres undefined) | – | active: 79.4 µM | – |
| CCOCC(=O)N1CCCC(c2nc(CCOCc3ccccc3)no2)C1 (centres undefined) | inactive: 1.53% | – | – |
| Cc1cnc(C2CC2)n1C1CCN(Cc2cn(C)c3ccccc23)C1 (centres undefined) | – | inconclusive: 39.8 µM [inhibitor, partial curve, poor fit] | – |

| Structure (SMILES) | activity change, negative = cytotoxicity | Potency | outcome |
| --- | --- | --- | --- |
| COc1cccc(-c2cc(C(=O)NC3CCCC3)c3cnn(C)c3n2)c1 | – | inconclusive: 56.2 µM [inhibitor, partial curve, poor fit] | – |
| COCCOCC(=O)N1CCOc2ccc(CN3CCc4ccccc4C3)cc2C1 | inactive: 4.14% | – | – |
| Cc1ccc(OCc2nc(C3CN(C(=O)c4cc(C)nn4C)C3)no2)cc1 | – | active: 44.7 µM | – |
| O=C(N[C@H]1CO[C@H]2[C@@H]1OC[C@@H]2Nc1nccc(-c2cccs2)n1)c1ccc(C(F)(F)F)cc1 | – | inconclusive: 89.1 µM [inhibitor, single point] | – |
| Cn1ncc2c(C(=O)NCc3ccccc3)cc(-c3ccc(C(F)(F)F)cc3)nc21 | – | active: 79.4 µM | – |
| CNC(=O)c1cc(C2CC2)nc2onc(C3CCN(C(=O)Cc4cccc(Cl)c4)C3)c12 (centres undefined) | – | inconclusive: 89.1 µM [inhibitor, single point] | – |
| O=C1NC[C@@H](CCC(=O)N2CCCC2)N2C[C@@H](NCc3ccc(CO)o3)C[C@@H]12 | – | inconclusive: 126 µM [inhibitor, single point] | – |
| COc1cccc(C(=O)N2CC(Oc3ccc(-c4nc(-c5ccccc5)no4)cc3)C2)c1 | – | active: 22.4 µM | – |
| CCOc1ccc(S(=O)(=O)N2CCC3(CC2)CN(C)CC3COC)cc1 (centres undefined) | – | inconclusive: 44.7 µM [inhibitor, partial curve, poor fit] | – |
| CCn1c(C2CCN(S(=O)(=O)c3cccc(Br)c3)CC2)nn(C)c1=O | – | inconclusive: 100 µM [inhibitor, single point] | – |
| COc1ccc(C(=O)NCCC2CCN(C(=O)Nc3ccc(C)c(F)c3)CC2)cc1 | inactive: -23% | – | – |
| CC(=O)NC1(C)CCCN(Cc2cccc(-c3ccc4c(ccn4C)c3)c2)C1 (centres undefined) | – | active: 56.2 µM | – |
| CC1(Cc2ccc3c(c2)OCO3)CCCN(C(=O)c2ccccc2-n2cncn2)C1 (centres undefined) | – | inconclusive: 50.1 µM [inhibitor, partial curve, poor fit] | – |
| Cc1ccc(CN2CCNC(=O)C2CC(=O)N(CC(C)C)CC(C)C)cc1 (centres undefined) | – | inconclusive: 89.1 µM [inhibitor, partial curve, poor fit] | – |
| CC1CCN(C(=O)CC(c2ccc(Cl)cc2)c2cn(C)c3ccccc23)CC1 (centres undefined) | – | inconclusive: 50.1 µM [inhibitor, partial curve, poor fit] | – |
| Cc1ccc(C(=O)N2CCC3(CC2)Nc2ccccc2NC3=O)cc1O | – | inconclusive: 50.1 µM [inhibitor, partial curve, poor fit] | – |
| COc1ccccc1-c1[nH]nc2ncc(C(=O)NCC3CC3)nc12 | – | inconclusive: 63.1 µM [inhibitor, partial curve, poor fit] | – |
| COc1ccc(C(=O)NCc2nnc3ccc(-c4ccc(C)c(C)c4)nn23)cc1OC | – | inconclusive: 89.1 µM [inhibitor, single point] | – |
| CC(C)(C)C(=O)NC1CCN(c2nccc(Nc3ccccc3F)n2)CC1 | – | inconclusive: 50.1 µM [inhibitor, partial curve, poor fit] | – |
| O=c1c2nc(-c3cccc(O)c3)ccc2ncn1-c1ccccc1 | – | inconclusive: 100 µM [inhibitor, partial curve] | – |
| COc1ccc(-c2noc([C@@H]3CCCN3C(=O)Cc3cccc(F)c3)n2)cc1OC | – | inconclusive: 44.7 µM [inhibitor, partial curve, poor fit] | – |
| COc1ccccc1-c1cnc(Nc2cncnc2)c2c1CCO2 | – | inconclusive: 89.1 µM [inhibitor, partial curve] | – |

| Structure (SMILES) | activity change, negative = cytotoxicity | Potency | outcome |
| --- | --- | --- | --- |
| COc1ccc(C2Cn3nnc(-c4noc(-c5ccc(C)s5)n4)c3CO2)cc1 (centres undefined) | inactive: -16.3% | – | – |
| CCCCNC(=O)C1CCN(C(=O)c2ncn3c2COC(c2ccc(F)cc2)C3)CC1 (centres undefined) | inactive: -15.4% | – | – |
| COc1ccc(-c2cc(-c3ccccc3O)cn3cncc23)cc1 | – | active: 100 µM | – |
| CC(C)(Oc1nn(Cc2cccc(Cl)c2)c2ccccc12)C(=O)NCc1cnccn1 | – | active: 89.1 µM | – |
| O=C(NC1CCCC1)c1ccc(OC2CCN(C(=O)C3CCCO3)CC2)c(Cl)c1 (centres undefined) | – | inconclusive: 35.5 µM [inhibitor, partial curve, poor fit] | – |
| CC(C)n1cc(CN2C[C@@H]3C(=O)N(Cc4ccc5c(c4)OCO5)C(=O)[C@@H]3C2)c2ccccc21 | – | inconclusive: 44.7 µM [inhibitor, partial curve] | – |
| CCCN(CCC)C(=O)CC1=CSC2=NC(CC)=C(C(=O)OC)C(c3cccc(F)c3)N12 (centres undefined) | – | inconclusive: 22.4 µM [inhibitor, partial curve, poor fit] | – |
| COc1ccc(C(=O)NC[C@H]2O[C@H](Cc3cc(-c4ccccc4)on3)CC[C@@H]2O)cc1 | inactive: -28.6% [at 172 µM] | – | – |
| O=C(NCc1ccccc1)c1cnc2n1CCN(Cc1ccccc1O)CC2 | – | inconclusive: 63.1 µM [inhibitor, partial curve, poor fit] | – |
| CCCn1nc(C)c(-c2cc(C(=O)N3CCCC(Cc4nncn4Cc4ccccc4)C3)[nH]n2)c1C (centres undefined) | – | – | inactive |
| OCCC1CN(c2nccc(-c3ccccn3)n2)CCN1Cc1ccoc1 (centres undefined) | inactive: -20.1% | – | – |
| COC(=O)c1ccc(N2CCN(C(=O)Cn3nnnc3CN(C)C(C)C)CC2)cc1 | inactive: -9.26% | – | – |
| Cc1nn2c(c1-c1ccccc1OCc1ccccc1)N(Cc1ccc(C(=O)O)s1)CCC2 | – | active: 35.5 µM | – |
| Cc1cccc(-n2nc(C)c(CCC(=O)N(C)C(C)C)c2Oc2ccccc2)c1 | – | active: 39.8 µM | – |
| CCCN1CCCCC12Cc1ccccc1CN(C(=O)C1CCN(C)CC1)C2 (centres undefined) | – | inconclusive: 89.1 µM [inhibitor, single point] | – |
| Cn1nc2n(c1=O)CCN(CC1CCCCC1)CC2 | inactive: -15.2% | – | – |
| NC(=O)C1(NC(=O)c2ccc(S(=O)(=O)N3CCCC(O)C3)cc2)CCCC1 (centres undefined) | – | inconclusive: 89.1 µM [inhibitor, single point] | – |
| CN1C(=O)CS(=O)(=O)C12CCN(C(=O)c1cccc(F)c1)CC2 | inactive: -22.8% | – | – |
| Fc1cccc(CN2CCO[C@@H](COc3ccccn3)[C@@H]2c2ccccc2)c1 | – | inconclusive: 50.1 µM [inhibitor, partial curve, poor fit] | – |
| C[C@H]1CCCN1C(=O)c1nnc(CNCc2cccc(Cl)c2)n1-c1ccccc1 | – | inconclusive: 112 µM [inhibitor, single point] | – |
